# According to ChEMBL document CHEMBL4888484, “Replenishing the malaria drug discovery pipeline: Screening and hit evaluation of the MMV Hit Generation Library 1 (HGL1) against asexual blood stage Plasmodium falciparum ,using a nano luciferase reporter read-out” (2022):
# Among all 150,000 compounds or so, about 540 (0.36%) showed an effect of 50% or more. This is one part of the list.
# Test system: Plasmodium falciparum
# Assay: Primary screen in NF54 nanoGlo assay, in single point, at 2uM, 72h; a lower Z score goes with more inhibition
# Type: functional, Erythrocyte
# Settings: timepoint 72 hour
SMILES,% Inhibition,Z score
CO[C@@]12CC[C@@H](OCC3CC3)C[C@@H]1N(c1ncnc(C)c1C)CC2,-10%,1.75
Cc1noc(C)c1CNC1CCN(C(=O)c2cccs2)CC1,-1%,0.29
COC(=O)[C@H](C#N)c1ccc(C#N)cn1,34%,-0.65
CC(C)CCNC(=O)c1ccc2c(c1)nc1n2CC[C@H](C)C1,-8%,1.11
Cn1cnc2c1CCN(Cc1cnn(-c3ccccc3)n1)C2,-4%,0.58
O=C(N[C@H]1CC[C@H](Nc2ccccn2)CC1)c1ccc(=O)[nH]n1,-1%,0.21
O=C([C@H](O)C1CCCCC1)N1CCc2[nH]c(-c3ccccc3)nc2C1,-1%,0.13
O=S(=O)(c1cccc2nsnc12)N1CC(c2nc(CCOCC3CC3)no2)C1,-15%,1.88
CC(C)CN(C(=O)CC1CC2CCC1C2)C1CC1 (stereo unspecified),-17%,1.78
CNc1nc(N2CCN(CC3CC3)CC2)ncc1F,9%,-1.21
CN(C)c1ccc(-c2noc(CCN)n2)cc1,-18%,2.75
NC(=O)COc1ccc(S(=O)(=O)NC[C@H](O)c2csc3ccccc23)cc1,-14%,1.74
COc1ccccc1C(=O)C(=O)NC1CC(C)(C)NC(C)(C)C1,-6%,0.73
Cc1nccn1CCN(C)Cc1cc(C#CCO)cs1,3%,-0.44
COc1ccc(CCN2CC(=O)N(c3ccccc3)C3CS(=O)(=O)CC32)cc1 (stereo unspecified),-2%,0.25
COc1ccc(N2CCN(C(=O)/C(=C/c3ccccc3Cl)c3ccccc3)CC2)cc1,-15%,2.04
Cc1nc(N2CC[C@@H](O)C2)ncc1-c1cc2c(cc1CO)OCO2,-1%,0.13
CCCNC(=O)N(C)CC(=O)N1N=C(c2ccc(C)c(C)c2)C[C@H]1c1ccc2c(c1)OCO2,-6%,0.71
O=C(CCC1CCCCC1)N1CCN(c2cc(-n3ccnc3)ncn2)CC1,-13%,2.21
O=C1NC2(CCCC2)C(=O)N1C[C@H](O)CN1CCOCC1,-11%,0.96
CCn1cc(-c2nc(-c3ccccc3)no2)c(=O)c2cc(F)c(N3CCCCC3)cc21,-9%,1.55
O=C(Nc1ccc(OC[C@H]2CCCCO2)cc1)N1CCOCC1,-12%,1.76
CN1CCC(=C2c3cc(Cl)ccc3OCC2(C)C)CC1,0%,-0.02
CN1CCN(C(=O)Cn2ccc(NC(=O)[C@H]3CC[C@@H](c4ccccc4)O3)n2)CC1,-4%,0.45
CCn1cc(S(=O)(=O)N2CC[C@H](c3nc(CCOc4cccc(C)c4)no3)C2)cn1,-11%,1.34
Cn1ccc(NC(=O)CCC2CCCCC2)n1,-3%,0.28
CNC(=O)[C@@H]1CCCCN1Cc1cc2cc(F)ccc2n1C,-20%,2.12

SMILES,% Inhibition,Z score
CN(C[C@H]1CCS(=O)(=O)C1)C(=O)CC(C1CCC1)C1CCC1,-8%,1.42
O=S(=O)(c1ccccc1Cl)N1CC(n2nccn2)C1,-29%,3.28
O=C(c1ccc(O)nc1)N1CCC[C@H]1c1nc2ccccc2s1,-21%,2.5
COCCO[C@H]1[C@H](NC(=O)C(C)C)c2ccccc2C12CCN(C(=O)c1cccc(F)c1F)CC2,-10%,2.07
O=S(=O)(N[C@@H]1COCC[C@@H]1OCC1CC1)c1ccc2c(c1)OCCO2,-2%,0.28
CC(=O)N1CCN(c2c(C)cnc3c2c(=O)n(CC(=O)Nc2ccc(F)cc2)c(=O)n3C)CC1,-3%,0.44
CCNC(=O)[C@H]1CCCN(c2nc3ncn(CC(=O)NC4CCCCC4)c(=O)c3s2)C1,-23%,2.07
Cc1ccc(C)c2c(=O)c3c([nH]c12)CCN(CC(=O)Nc1ccccc1F)C3,-12%,1.31
C[C@H](NC(=O)COCC(=O)Nc1ccccc1)c1ccccc1,10%,-1.21
O=C(NC[C@H]1CCCN1CC(F)F)Nc1ccn2ccnc2c1,-11%,1.34
Cc1cnc(CN2CCCC[C@H]2C(=O)Nc2cc(F)cc(F)c2)cn1,-16%,2.56
O=C(Nc1nc2c(s1)CN(C(=O)c1cc(-c3ccccc3)on1)CC2)c1cccs1,-26%,3.83
CN1c2cc(F)ccc2C(=O)NC12CCN(C(=O)NC1CCCCC1)CC2,-7%,0.9
CCc1nnc(NC2CCCCC2CO)nc1CC (stereo unspecified),-8%,1.31
CC(C)(NC(=O)CCc1ccsc1)c1nnc2n1CCCC2,-13%,1.68
COCCC1(NC(=O)C2CCOCC2)CCN(C(=O)[C@H](C)c2ccccc2)CC1,-15%,1.91
CC(C)(C)OC(=O)N1CCC2(CC1)CC(C#N)C2,30%,-3.85
Cc1nc2ccccn2c1CN(C)C(=O)[C@@H]1CCCN1S(C)(=O)=O,16%,-2.15
Cc1nn(C)c(Cl)c1C(=O)N(C)Cc1ccco1,-6%,0.73
COC(=O)c1cc2n(n1)C[C@@](C)(C(=O)NC1CCC(C)CC1)N(c1cc(Cl)ccc1C)C2=O (stereo partly specified),18%,-2.09
CCc1noc(C)c1Cn1nc(C(F)(F)F)ccc1=O,-2%,0.23
O=C(O)c1cc(N2CCC[C@H](c3ccn[nH]3)C2)nc2ccccc12,-11%,1.25
O=C(C[C@@H]1NC(=O)N(Cc2ccc3c(c2)OCO3)C1=O)N1CCN(c2ccccn2)CC1,-2%,0.36
C[C@@H](Cc1ccncc1)NC(=O)c1ccncc1O,-1%,0.07
CC1CCN(S(=O)(=O)c2ccc(CNC(=O)c3ccc(F)cc3)s2)CC1,-19%,1.9
CC[C@H](C)[C@H](NC(=O)C1Cc2ccccc21)C(=O)O (stereo partly specified),3%,-0.66
